# Paper PMC13423814
# Not every entry of the source has a single result; some have several. This list holds those alone. An entry can have further records. Some entries list several cross-links; each record is another pair of residues.
# Key:
# HNRNPC = HNRNPC (UniProt P07910); settings: DSSO, in cells
# PSPC1 = PSPC1 (UniProt Q8WXF1); settings: DSSO
Substance,cross-linked residues (HNRNPC),cross-linked residues (PSPC1)
"HNRNPDL, O14979",S300 - K176 and K302 - K8,
"NONO, Q15233",,K99 - K8 and K99 - K14 and K249 - K344
